Measured values taken from the RNAGym collection of RNA variant scans (doi:10.1093/nar/gkz1192).
The source gives no read counts; variants with many changes may rest on few reads.

B1: CPEB3 Ribozyme (parent)
chain: UAACAGGGGGCCACAGCAGAAGCGUUCACGUCGCAGCCCCUGUCAGAUUCUGGUGAAUCUGCGAAUUCUGCUGUAUAUCUC

Variants of: B1
Test: self-cleavage, relative activity (ratio to wild type); higher = more cleavage; in vitro, sequencing
Summary of the method: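 Relative activity was defined as the cleaved/total read fraction for a variant divided by the same fraction for the unmutated ribozyme. CPEB3 self-cleaving ribozyme libraries were made by rounds of error-prone PCR, barcoded, and transcribed in vitro with T7 RNA polymerase for 5 hours at 37°C, and cleavage ran through transcription plus a 15 min DNase I step before EDTA. Illumina sequencing of template-switched reverse transcripts gave the reads, and DNA sequencing mapped the barcodes. Averages come from three batches, using variants with at least 5 reads.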
UAACGGGGGGCCACAGCAGAAGCGUUCACGUCGCAGCCCCUGCCAGAUUCUGGCGAAUCUGCGAAUCCUGCCGUAUAUCUC [A5G U43C U54C U67C U72C] gave a self-cleavage of 0.07. For UAACGGGGGGCCACAGCAGAAGCGUUCACGUCGCAGCCCCUGCCAGAUUCUGGUGAAUCUGCGAAUUCAGCUGUAUAUCUC [A5G U43C U69A], the self-cleavage was 0.26. With UAACGGGGGGCCACAGCAGAAGCGUUCACGUCGCAGCCCCUGGCGGAUUCUGGUGAAUCUGCGAAUUCUGCUGUAUAUCUC [A5G U43G A45G] the self-cleavage was 0.5. UAACGGGGGGCCACAGCAGAAGCGUUCACGUCGCAGCCCCUGGCAGAUUCUGGUGAAUCUGCGGAUUCUGCUGUAUAUCUC [A5G U43G A64G] gave a self-cleavage of 0.24. UAACGGGGGGCCACAGCAGAAGCGUUCACGUCGCAGCCCCUGGCAGAUUCUGGCGAAUCUGCGAAUUCUGCUGUAUAUCUC [A5G U43G U54C] gave a self-cleavage of 0.1. UAACGGGGGGCCACAGCAGAAGCGUUCACGUCGCAGCCCCUGUCAGACUCUAGUGAAUCCGCGUAUUCUGCAGUAUAUCCC [A5G U48C G52A U60C A64U U72A U80C] showed a self-cleavage of 0.09. UAACGGGGGGCCACAGCAGAAGCGUUCACGUCGCAGCCCCUGUCAGACUCUGGAGAAUCUGCGAAUUCUGCUGUAUAUCUC [A5G U48C U54A] showed a self-cleavage of 0.38. With UAACGGGGGGCCACAGCAGAAGCGUUCACGUCGCAGCCCCUGUCAGACUCUGGGGAAUCUGCGAAUUCUGCUGUAUAUCCC [A5G U48C U54G U80C] the self-cleavage was 0.39. UAACGGGGGGCCACAGCAGAAGCGUUCACGUCGCAGCCCCUGUCAGACUCUGGUGAAUCUGCGAAUUCGGCUGUAUAUCUC [A5G U48C U69G] showed a self-cleavage of 0.11. Variant UAACGGGGGGCCACAGCAGAAGCGUUCACGUCGCAGCCCCUGUCAGAGUCUGGUGGAUCUGCGAACUCUGCUGUAUAACUC [A5G U48G A56G U66C U78A] has a self-cleavage of 0.35. With UAACGGGGGGCCACAGCAGAAGCGUUCACGUCGCAGCCCCUGUCAGAUACUGGUGAGUCUGCGAACUCUGCUGUAUAUCUC [A5G U49A A57G U66C] the self-cleavage was 0.19. Variant UAACGGGGGGCCACAGCAGAAGCGUUCACGUCGCAGCCCCUGUCAGAUACUGGUGAAUCUGCGAAUUCUGCGGUAUAUCUC [A5G U49A U72G] has a self-cleavage of 0.46. UAACGGGGGGCCACAGCAGAAGCGUUCACGUCGCAGCCCCUGUCAGAUCCUGGUGAAUCUGCGAAUUAUGCUGUAUAUCUC [A5G U49C C68A] showed a self-cleavage of 0.15. For UAACGGGGGGCCACAGCAGAAGCGUUCACGUCGCAGCCCCUGUCAGAUCCAGGUGAAUCCGCGAAUUCUGCUGUAUAUCUC [A5G U49C U51A U60C], the self-cleavage was 0.15. For UAACGGGGGGCCACAGCAGAAGCGUUCACGUCGCAGCCCCUGUCAGAUCCAGGUGAAUCUGCGAAUUCUGCUGUAUAGCUC [A5G U49C U51A U78G], the self-cleavage was 0.43. Variant UAACGGGGGGCCACAGCAGAAGCGUUCACGUCGCAGCCCCUGUCAGAUCCUGGUGAAUCUGCGAACUCUACUGUAUAACUC [A5G U49C U66C G70A U78A] has a self-cleavage of 0.19. UAACGGGGGGCCACAGCAGAAGCGUUCACGUCGCAGCCCCUGUCAGAUUCCGGUGAAUCUGCGAAUUCAGCUGUAUAUCUC [A5G U51C U69A] showed a self-cleavage of 0.14. UAACGGGGGGCCACAGCAGAAGCGUUCACGUCGCAGCCCCUGUCAGAUUCUGGAGAAUCUGUGAAUUCUGCUGUAUAUCUC [A5G U54A C62U] showed a self-cleavage of 0.29. UAACGGGGGGCCACAGCAGAAGCGUUCACGUCGCAGCCCCUGUCAGAUUCUGGAGAAUCCGCGAAUACUGCUGUGUAUCUC [A5G U54A U60C U67A A75G] showed a self-cleavage of 0.09. For UAACGGGGGGCCACAGCAGAAGCGUUCACGUCGCAGCCCCUGUCAGAUUCUGGAGAAUCUGCGAAUCCCGCUGUAUAUCUC [A5G U54A U67C U69C], the self-cleavage was 0.43. For UAACGGGGGGCCACAGCAGAAGCGUUCACGUCGCAGCCCCUGUCAGAUUCUGGCGAGACUGCGAAUUCUGCUGUAUAUCUC [A5G U54C A57G U58A], the self-cleavage was 0.21. UAACGGGGGGCCACAGCAGAAGCGUUCACGUCGCAGCCCCUGUCAGAUUCUGGGGGAUCUGCGAAUUCUGCUGUAUAUCCC [A5G U54G A56G U80C] showed a self-cleavage of 0.62. UAACGGGGGGCCACAGCAGAAGCGUUCACGUCGCAGCCCCUGUCAGAUUCUGGUGAACCUGCGAAUUCUGCCGUAUAUCUC [A5G U58C U72C] showed a self-cleavage of 0.21. UAACGGGGGGCCACAGCAGAAGCGUUCACGUCGCAGCCCCUGUCAGAUUCUGGUGAACCUGCGAAUUCUGCUGUAUAACUC [A5G U58C U78A] gave a self-cleavage of 0.41. UAACGGGGGGCCACAGCAGAAGCGUUCACGUCGCAGCCCCUGUCAGAUUCUGGUGAAUCAGCGGAUUCUGCAGUAUAUCCC [A5G U60A A64G U72A U80C] showed a self-cleavage of 0.15. For UAACGGGGGGCCACAGCAGAAGCGUUCACGUCGCAGCCCCUGUCAGAUUCUGGUGAAUCCGCGAAUUCUGCUGAAUAUCUC [A5G U60C U74A], the self-cleavage was 0.22. Work on UAACGGGGGGCCACAGCAGAAGCGUUCACGUCGCAGCCCCUGUCAGAUUCUGGUGAAUCUGCGAAUCCUGCCGUAUAUCUC [A5G U67C U72C] yielded a self-cleavage of 0.56. For UAACGGGGGGCCACAGCAGAAGCGUUCACGUCGCAGCCCCUGUCAGAUUCUGGUGAAUCUGCGAAUCCUGCUGCAUAUCUC [A5G U67C U74C], the self-cleavage was 0.46. With UAACGGGGGGCCACAGCAGAAGCGUUCACGUCGCAGCCCCUGUCAGAUUCUGGUGAAUCUGCGAAUUCAGCUGUGUAUCUC [A5G U69A A75G] the self-cleavage was 0.31. For UAACGGGGGGCCACAGCAGAAGCGUUCACGUCGCAGCCCCUGUCAGAUUCUGGUGAAUCUGCGAAUUCAGCUGUAAAACUC [A5G U69A U76A U78A], the self-cleavage was 0.65. For UAACGGGGGGCCACAGCAGAAGCGUUCACGUCGCAGCCCCUGUCAGAUUCUGGUGAAUCUGCGAAUUCUGCCGUAUAUCCC [A5G U72C U80C], the self-cleavage was 0.85. With UAACGGGGGGCCACAGCAGAAGCGUUCACGUCGCAGCCCCUGUCAGAUUCUGGUGAAUCUGCGAAUUCUGCUGUAAAUCCC [A5G U76A U80C] the self-cleavage was 0.78. Work on UAACUGGGGGCCCCAGCAGAAGCGUUCACGCCGCAGCCCCUGUCGGAUCCUGGUGAUUCUGCGAAUUCUGCUGUAUAUCUC [A5U A13C U31C A45G U49C A57U] yielded a self-cleavage of 0.41. In the case of UAACUGGGGGCCCCAGCAGAAGCGUUCACGUCGCAGCCCCGGCCAGAUUCUGGUGAAUCUGCGAAUUCUGCAGUAUUUCUC [A5U A13C U41G U43C U72A A77U], the self-cleavage is reported as 0.09.
